From PubChem BioAssay (NCI) come the findings set out here.

For the assay, the system named is BT-549 breast. Put plainly: NCI tumour cell line growth inhibition, 48 h.

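Step 1: Grow cells in 96-well plates. Step 2: Expose to compound for 48 hours at 5 concentrations. Step 3: Interpolate endpoints linearly; if unreached, use highest concentration. GI50 marks 50% less growth.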 For part of its entries the source gives two or more results. The other results are left out here. The source may hold further records. The tests behind the records often covered other concentration ranges, which the source does not state; a value can be the end of its range.

Consider `COc1cc(O)c2c(c1)/C=C/C[C@H](O)[C@H](O)C(=O)/C=C\C[C@H](C)OC2=O`, for which the GI50 was 256 nM and 2.62 µM.
